In the supplement of paper PMC11417369:
± gives the standard deviation of the averaged measurements. This is one part of the list.

What follows are sequences tested on PfAP2-EXP AP2 domain (GST-tagged) (assay: gcPBM binding intensity (ln(normalized median fluorescence intensity)); higher = stronger DNA binding).
Summary of the method: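 Binding intensity is defined as the maximum Masliner-normalised natural-log median intensity across replicate spots for either probe orientation. It was measured on an Agilent 4 × 180k array of primer-extended double-stranded 36-bp intergenic genomic probes and negative controls, to which GST-tagged P. falciparum DNA-binding domains made in E. coli were applied for 1 h in 1× PBS with 1% milk, 0.2 mg/ml BSA, 0.5% salmon testes DNA and 0.03% Triton X-100. Detection was by Alexa488 anti-GST antibody and scanning at 488 nm.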

Sequence | gcPBM binding intensity (ln)
AAACAATACTGATATTGTACATAATAAAAAAAAATA [XGTACX_site3330] | 8.63 ± 0.31
ATTTTGATGCATGGGTTGCACTAACTTTTGCCCAGA | 8.74 ± 0.17
ATAAATATATTTTATAGTACATAAATATCAAAAAAA [XGTACX_site2334] | 8.55 ± 0.28
AAAATATGTATGTAAAGTACTAATATACAAATTTTT [XGTACX_site5186] | 8.37 ± 0.39
TTTTTTTTTTTTGATGCACACACCTGAACGAGTTAA [CACACA_site317] | 8.62 ± 0.32
TATTTTTATATATGACGTACTCTACAATTATTAATG [XGTACX_site5818] | 8.57 ± 0.36
TAGTCGTTTTTTTAATGTACTCACGCATAATATAAT [XGTACX_site6499] | 8.7 ± 0.33
ATATAAATATTCCACACACACACAAAAAAAAAAAAA [CACACA_site7678] | 8.32 ± 0.6
TTAATTATAAGAAAAAGTACTCATTACATTATAGAA [XGTACX_site678] | 8.53 ± 0.092
TGAAAAGTAAAATACACACACATAATATAATTTATA [CACACA_site1989] | 8.57 ± 0.47
CATATACATCCACATACACACATACACCCATACACA [CACACA_site5038] | 8.73 ± 0.46
GTTCAAAATATGAACACACACATATAGATTTATATA [CACACA_site7054] | 8.39 ± 0.35
ATCATTTTTAAAGGAACACACAAAAAAAATTAGAAT [CACACA_site1370] | 8.81 ± 0.47
AAAGGATATAGACACACACACACATATATATATATA [CACACA_site2200] | 10.2 ± 0.14
ATTATTTTTTTTGTTACACACATGACTTATTTTTAT [CACACA_site3228] | 8.89 ± 0.44
GCCAAAAGGATATGCACACACACACCCATATATATA [CACACA_site2198] | 8.79 ± 0.38
CAAGGAACCGGACACACACACATAAATGTATTTATA [CACACA_site4574] | 8.46 ± 0.5
CATTATCATGTTTTTTGTACTCATAATAAAAAGCAG [XGTACX_site2056] | 8.37 ± 0.27
AATAATTGTTAAAGTTGTACTATACGTATATAAGAA [XGTACX_site1432] | 8.86 ± 0.33
AAAAATGAATTATTTTGTACATATATATATATATAT [XGTACX_site3410] | 10.1 ± 0.38
ATTTACAAAAGGAAAGTGCAAACATGTGATTAAACA [CACACA_negctrl_site714] | 9 ± 0.3
TATATATAGAAACACACACACACCAAAGCGTAGCGC [CACACA_site62] | 8.77 ± 0.43
ATAAAGATATGACACACACACATATTATAGATATAT [CACACA_site7434] | 8.54 ± 0.59

Sequence | gcPBM binding intensity (ln)
ATCAATTTAATTTATTGTACTTGTTTGTTTTTTTAT [XGTACX_site7544] | 8.54 ± 0.32
GATAACATAATATGTTGTACATAAAAATTTTTATCA [XGTACX_site1969] | 8.61 ± 0.37
AACTTATTTAAATTCACACATATATAAAATACTTAT [CACACA_site4394] | 8.38 ± 0.42
ACATATGACTATAATACACACTTGTATTATTAATAT [CACACA_site6951] | 8.29 ± 0.34
TACTCATAATATTGATAATTAAAAAGATAAACTATT [XGTACX_negctrl_site299] | 8.245 ± 0.049
AATTTTATTACTTTTACACACCTATATATTATTCAT [CACACA_site3273] | 8.81 ± 0.48
ATTATTTTATTATAGTGTACTTTTTTAATCAAAGGA [XGTACX_site8921] | 8.49 ± 0.15
TTTTAAAAAAAATATAAAAAAAGAGGAGGGATGGTA [GTGCAC_negctrl_site35] | 8.68 ± 0.41
TAATTTAAACAAAAAAGTACAAATTTCTTTTTATTA [XGTACX_site5244] | 7.83 ± 0.31
ATTTTAATTACATATACACACAAAGGTTCATAACAA [CACACA_site9008] | 8.46 ± 0.39
TATGTTTTTACGTGTGTGCACTTTGTAGAGATAAGT | 9.29 ± 0.12
AAAAAAAAAAAAATATGTACTTATTTTTATGTTAAA [XGTACX_site8802] | 8.32 ± 0.24
TACTATATAAGTAAGGCATGCATGCCGATTTTTTTA [TGCATGCA_site100] | 9.11 ± 0.28
TTCTTTAATACTTATTGTACAATATAATAATCACAA [XGTACX_site6364] | 8.88 ± 0.25
TGAAACCGTTACATGTGTACATATGTTACACATAAT [XGTACX_site7250] | 8.51 ± 0.28
TACTTAAAATATTTAACAAATAAATAAATAAATAAA [XGTACX_negctrl_site523] | 8.52 ± 0.16
ATTAGATATGTAAACTAAAATTATATTCATGATAAT [TGCATGCA_negctrl_site182] | 8.2 ± 0.63
TCTAACAACATGCGCACACACATGAATATTCATATT [CACACA_site1540] | 8.86 ± 0.11
ATATTTTTATTTTCTTTACACACCACATAATTTTTT [CACACA_site4060] | 8.97 ± 0.5
TTTCTTTTACATATTTGTACATATATAAATTTATAT [XGTACX_site1787] | 8.91 ± 0.35
TCACATCTTATATACTGTACATTTCGAATATAAATT [XGTACX_site2508] | 8.82 ± 0.39
CATAATAAGTATAACGTTAGTTACAAACAGCTTGTT [CACACA_negctrl_site937] | 8.76 ± 0.4
AAAATAATGTATATAGTGCAAATGAAAACGAAAAAA [GTGCAC_site9455] | 9.28 ± 0.42

Sequence | gcPBM binding intensity (ln)
TTTTTAAATAAATGTTTTTATTATATACATATCAAT [TGCATGCA_negctrl_site423] | 8.1 ± 0.47
TATTATTCAAAATTTGTGCACAAAATTAAAGGAACA | 8.96 ± 0.38
TTTGTTTTTTTGAGAGTGCAATATATATAAAAAGGG [GTGCAC_site9691] | 9.34 ± 0.36
TTGGTGATATTTTTCTCACACATTTACCAGAGATGT [CACACA_site4684] | 8.44 ± 0.37
GTAGATATTTATTGAGTGCATGTTATAAAGGGAAAA [GTGCAC_site9481] | 8.92 ± 0.24
TTTTTATTTTTTTACAGTACATAAAATAAATAAATA [XGTACX_site6596] | 8.18 ± 0.4
TTTTTTTTATGGAAACGTACATACATACATTAAAGA [XGTACX_site7401] | 8.38 ± 0.39
TATTTATATATTTATGCATGTTATAGGCAAAAATGT [TGCATGCA_site397] | 8.51 ± 0.42
TATATTGATGATGATAGTACGTATGAATACAAAAAA [XGTACX_site4] | 8.61 ± 0.35
AAGAGTAAAATATGGTTGCACTAAAAATATATATTT [GTGCAC_site9484] | 8.46 ± 0.39
TAAAACATATAAAGGTGTACGCCTTTTTGTATCAAT [XGTACX_site6064] | 8.42 ± 0.3
ATAATAAAAATATACTGTACATTTGTAAATTCTTTT [XGTACX_site4655] | 8.19 ± 0.32
TTATAGAGCTTATTCACACATACATATGTATTTATA [CACACA_site5775] | 8.62 ± 0.54
GTCTACTACACTAAATGTACAAGAAAAAAGAAAAAA [XGTACX_site4660] | 8.49 ± 0.41
TATATTTGTTGACACACACACAAAAAAAAAAAAAAA [CACACA_site7211] | 8.29 ± 0.48
TATAAAATTCTGACTTGTACATGTGAAAAATAATTA [XGTACX_site1396] | 8.68 ± 0.51
AAAATACAATTTCTAGCACACAAAATATTATTATAA [CACACA_site9056] | 8.34 ± 0.37
GCGTTGTTTTTAAAAAGTACATTTTTATATAAGTTA [XGTACX_site8780] | 8.61 ± 0.28
AAAGATGGAAAAAAAAATTTGTGTGTTGAAAGATAT [GTGCAC_negctrl_site19] | 8.84 ± 0.38
TATATATATATATAATGTACACATTTTTATAACTAT [XGTACX_site5714] | 9.94 ± 0.34
CTTAATATATGTGGCACACATGTGGAGTCCTATTAA [CACACA_site4281] | 8.83 ± 0.55
AAAAAAATATTAATGTGTACATAATAATAACATATA [XGTACX_site8319] | 8.61 ± 0.26
AAATAAATAAATAAATGTACACATATATATATATAT [XGTACX_site7787] | 10.2 ± 0.47

Sequence | gcPBM binding intensity (ln)
AAATATTTAAATATTATGTATGATTATATATATATA [CACACA_negctrl_site590] | 9.83 ± 0.49
TCAATAAGATTATAAAGTACTTTTGAAGATATTATA [XGTACX_site7489] | 8.28 ± 0.33
TTTCTTATTTTTTTCACACACTAAACATTTCAAATG [CACACA_site5259] | 8.77 ± 0.45
AAAGAGAACATAAGTACACACATGTTCTTTTAGTAA [CACACA_site2824] | 8.35 ± 0.4
AATAGGAAAACCTATACACACTTTAAAAAAAATATA [CACACA_site4977] | 8.28 ± 0.31
ATAAATATGTATTGCTGTACATATATATAAATTATC [XGTACX_site8411] | 8.39 ± 0.28
AAAGTAAAAACACATACATGCATATACACATATAAC [TGCATGCA_site341] | 8.98 ± 0.3
AAAAAAAAAAAAAAAACACACAAAAGCAAGAAAAAC [CACACA_site3198] | 8.81 ± 0.62
TAAAAAATTTTCGCGTGTACGCAAGAAAAAAAAAAT [XGTACX_site3058] | 8.68 ± 0.35
TTTTTGCCATATTACACACACACATGGAAACCCCCT [CACACA_site4994] | 9.76 ± 0.52
AAAAAAATAATGTATATATAAATTTATTTACATATG [GTGCAC_negctrl_site107] | 8.12 ± 0.39
TCTTTTAACAAATAATAAGCTAATTTATATTATTAT [GTGCAC_negctrl_site655] | 8.07 ± 0.42
TATATATTTAGTTAGTGTACAAGTTATTTAGTAGTT [XGTACX_site5133] | 8.54 ± 0.12
CAAATAAATTAAAGGTGTACTTTTATAGTTACGACA [XGTACX_site3926] | 8.39 ± 0.33
CATATTTTCTTGTGTACACATTTATTTTATACTATA [CACACA_site6032] | 9.22 ± 0.27
TAAAAAATAAGATATACACACATATATTTATTTATA [CACACA_site7158] | 8.09 ± 0.52
CACCCACCCAGACACACACACACACCCCCACCCATA [CACACA_site367] | 9.48 ± 0.43
ACATTTTAAATACGATGTACTTGAGTTTTTTTTAAA [XGTACX_site5833] | 8.23 ± 0.3
AATTATTTATTGAGAGTGCAACAAATTATTTCAAAT [GTGCAC_site9461] | 8.43 ± 0.3
TTTTTTTGCATGAGCAATAAAAAAGGCTTGTTCAAA [CACACA_negctrl_site1615] | 8.39 ± 0.37
